# Experimental data: the supplement of paper PMC11417369
# This is one part of the list.
# Tested on: PfSIP2 AP2 domain 1 (GST-tagged)
# Experiment: gcPBM binding intensity (ln(normalized median fluorescence intensity)); higher = stronger DNA binding
# How it was run: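 GST-fused DNA-binding domains of P. falciparum, expressed in E. coli, were applied at about 25 μg on average for 1 h to an Agilent 4 × 180k array of primer-extended double-stranded 36-bp intergenic genomic probes and negative controls. Binding intensity is the highest Masliner-normalised natural-log median intensity across replicate spots of either probe orientation, measured with Alexa488 anti-GST antibody and a 488 nm scan.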
row,Sequence,gcPBM binding intensity (ln)
1,ATATATATCAGACACACACACATGTTTTAAAACTAT [CACACA_site77],7.35
2,TAAATTTTTAAATACACACATACACCCATACAGACA [CACACA_site548],7.51
3,TATACACTTGTAATAACACACATTATTTTTTTTTTT [CACACA_site1324],6.79
4,TTATATTTATATGTAATACAAAATAACAAAAAATTT [CACACA_negctrl_site1721],6.86
5,TATATATATATATCCACACACATACATATATTAATA [CACACA_site69],9.67
6,TTGGTAATTTTAAAATGTACTTATTATATATATATA [XGTACX_site5642],8.67
7,AAATTAAAAGAAAATACACACCTGTGGGTGCTTATA [CACACA_site5143],8.11
8,ATTTTTTTTTGTTTAATGTTATGTGGTCATTAAATT [CACACA_negctrl_site1177],7.03
9,TATTTATTCACTTATTGTACTTATATATATAATAAA [XGTACX_site6147],7.21
10,AATTAACCGAAACACACACACATATATATATATATA [CACACA_site3963],9.14
11,TTTTGTTGTTGTTGTTGTACATAAATAATAAAATAT [XGTACX_site8681],7.39
12,ATATATTTTTTTTAGCGTACATGCAAAAAAAAAAAA [XGTACX_site4590],7.26
13,TCATAAATTAAACACACACACACATCTGGATACCCC [CACACA_site9096],7.3
14,TATACACACAGACATGCATGCACATATATATATACA [TGCATGCA_site30],7.87
15,CATATTTTGAACTTCACACATATATATATATATATA [CACACA_site4228],9.66
16,GGTAGATTATTATTAACGAAAAATGTTTTTAACATA [GTGCAC_negctrl_site216],7.07
17,CCTTTCTATTGAAAATGTACATATATATTATTATAT [XGTACX_site5527],7.29
18,AATAATTGTAGACATGCACACACAAATATTATATAT [CACACA_site8181],8.37
19,AATAATTGTTATAGTTGTACAATACATATATTACAA [XGTACX_site30],7.02

row,Sequence,gcPBM binding intensity (ln)
1,TGTATATATAAAAATATACACACTGTATTATTGTAA [CACACA_site3757],6.86
2,AATATATATACTTTTTTTTTTTTTTTTTTTTTTTTT [CACACA_negctrl_site520],8.75
3,ACAAATTGTTAAAGGTGTACAATACATATATAAGAA [XGTACX_site4906],7.38
4,TATGTTTACATATACGTGCACATGAATGTATACATT [GTGCAC_site9894],9.69
5,TTTAGCACAAACAAAAAAAAAATAGAAAAAAATATA [CACACA_negctrl_site1772],6.88
6,AAATAAAAAATGGAAATCTTAACAAGAATCATTAAC [CACACA_negctrl_site1626],6.86
7,TATATACAGAATATATGTACATATTCATTTTATATT [XGTACX_site5139],6.97
8,AAAAAATAAATAAATAGTACTTTAAAAGAAAAAAAA [XGTACX_site5051],6.67
9,AAAGAAAACCAAGTGGTGCATTTTCGTTACTTCATC,10
10,CAATGTTACTATAATACACACAATATGTATTTGTCT [CACACA_site6668],7.11
11,TAAAAAAAAGGAAATACATGCATCTACATATATATA [TGCATGCA_site500],7.2
12,ATATATTTCATTTTTGTACACACAACGTTGGAGGGT [CACACA_site8999],7.24
13,ATATAGGTAATAATAATACACACGGTGAAATATAGA [CACACA_site4040],6.82
14,AAAAAAAAAATATATATATATATATAATATATATAT [TGCATGCA_negctrl_site329],8.59
15,AAAAACTAACTGTATTGTACTCTCTTATAAATTCAC [XGTACX_site8967],6.91
16,GACAATATTAAAACATGTACATGCATTTTATGAATA [XGTACX_site553],7.05
17,TATAATATAAAATATGCACACATTGGAATGGGAGAA [CACACA_site3746],8.17
18,TATTGTAAAGTGTCATTATTACGTTATATTATATAT [CACACA_negctrl_site98],6.87
19,ATATAAGTATACACATGTACATATTTCTTATGTATA [XGTACX_site2854],7.05

row,Sequence,gcPBM binding intensity (ln)
1,GTATGATGTGAACATTGTACGAATGAATATATCTAA [XGTACX_site3789],6.84
2,TATAAAGACACGTACACACACTAAGTATATCCAATA [CACACA_site6855],7.23
3,AAAAAATTTATAAAAGCACACAAAATAAAAAAAAAT [CACACA_site8420],6.99
4,AAAATGTTAAATATTAAATATGAAACAAAAAAAAAA [GTGCAC_negctrl_site211],6.81
5,TATAATTTAAAATACACACACATATATATAATATAT [CACACA_site2000],6.99
6,TAAATACATTTATATACACACCTATATATATATATA [CACACA_site5137],9.28
7,TCCAAATGAAAAAATTGTACATATTTTATCATATAT [XGTACX_site6159],7
8,ATAAGAAATTTCATACGTACATAAATAAATATATAT [XGTACX_site2932],7.19
9,TTTCATTTTTGAAGGTGTACTTAAAATTTATGTAAT [XGTACX_site6671],7.05
10,AAAATTTATTATCTATATAATAATATGAAACAAAAC [GTGCAC_negctrl_site731],7.27
11,CTCATTTTGTTAATGGTGCAAAAAAAAAAAAAAAAA,11
12,ATGAAAAAAAGACATGCATGTAAATATAAATTGCTT [TGCATGCA_site504],6.88
13,CATTATAAGAGACACACACACATATATAAATATGTA [CACACA_site6621],7.06
14,AGTAAGAGGCATTAAGCATGCATATTATTATAAGCA [TGCATGCA_site237],6.77
15,TATTTAAAACTATACACATGCATTATATAAAGATAT [TGCATGCA_site702],7.16
16,TTATAAAATATATATACATGCACAAAATTATAAGTA [TGCATGCA_site294],7.62
17,AATCAACATTTTTTTTGCTATTTTTTTTTTTAATTA [CACACA_negctrl_site891],6.71
18,AAAAAAACATAAAATACACACAACCTTAAGAATGTA [CACACA_site3293],6.77
